Data as given in article PMC12136788.
The list shows a part of the results.

T1: UNK ZnF1-6 (called full-length) (human, UniProt Q9C0B0 30-357)
T1 sequence: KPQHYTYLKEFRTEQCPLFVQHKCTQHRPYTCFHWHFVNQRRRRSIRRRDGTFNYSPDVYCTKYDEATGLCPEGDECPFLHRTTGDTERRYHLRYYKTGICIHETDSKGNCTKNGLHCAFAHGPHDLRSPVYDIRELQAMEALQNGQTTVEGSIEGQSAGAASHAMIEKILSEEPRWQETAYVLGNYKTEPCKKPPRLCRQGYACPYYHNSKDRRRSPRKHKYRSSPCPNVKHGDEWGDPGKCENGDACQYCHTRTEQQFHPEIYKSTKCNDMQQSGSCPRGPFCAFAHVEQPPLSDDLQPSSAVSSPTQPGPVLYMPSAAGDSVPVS

B1: ENSG00000070961:be:win_2751|CDS|ENSG00000070961|bound_else_gene|NA|bound_elsewhere_windowed (ssRNA)
RNA: GGGAGUUCUACAGUCCGACGAUCUGGUAGAAAUAAGCCUCUCAUCUCACGUACAAUGAUGAAGAAUAUUUUGGGUCAUGCAUUCUAUCAACUUGUAGUAGUCUUUACACUCUUAUUUGCUGGAGAAAAGUUUUUUGACAUUGACAACAGAGGAUUGAGCAUCA
B2: chr1:165910223:165910324:+|3pUTR|ENSG00000143179|unk|FALSE|unique (ssRNA)
RNA: GGGAGUUCUACAGUCCGACGAUCCCAGCAUUUGGCCAACUCUGUAUCUGAACUUGAGCUUUCUAUGGAACAAACAAUGGUCUUAGUUUUUUAAGAGCCUCUGGGUCUCUGAUUCCAUGGAGAGUCAGGAGUAGAAUUAGUGGACAACAGAGGAUUGAGCAUCA
B3: chr7:44624349:44624495:+|CDS|ENSG00000105953|unk|FALSE|unique (ssRNA)
RNA: GGGAGUUCUACAGUCCGACGAUCAGGCCAUUGACGGCUUCCCAGACUGUUAAGACAUUUUCACAAAACAGACCAGCAGCAGCUAGGACAUUUCAACAGAUUCGGUGCUAUUCUGCACCUGUUGCUGCUGAGCCCUUUCUCAGUCAACAGAGGAUUGAGCAUCA
B4: chr3:180614007:180614920:-|three_prime_utr|ENSG00000284862|control|control|control (ssRNA)
RNA: GGGAGUUCUACAGUCCGACGAUCUUGUAAACACAAAAACAAAAAUAUACUUUAAAAUACAAAACGACCCAACACAUUUUAUCUAGUGGAAAGUGUAAAAACUUAGUGGUAAGUGUAAAAACUGAUAGUUUUAAAAAAAAAGGACAACAGAGGAUUGAGCAUCA
B5: chr5:6668475:6668576:+|3pUTR|ENSG00000145545|unk|total|mutant (ssRNA)
RNA: GGGAGUUCUACAGUCCGACGAUCAUUUUUUCUAAUUUCAAAUUUACCUCUUUUGGCUAUGUCUUGCCAAGUGUGUAUGAGACCCGACUUUACAACUGUCUUUGAUGGCAUUUUCAGAACAAUAAAUGUCACAAUCCCUUCUAUCAACAGAGGAUUGAGCAUCA
B6: chr1:235977234:235977335:-|3pUTR|ENSG00000116962|msi1|total|mutant (ssRNA)
RNA: GGGAGUUCUACAGUCCGACGAUCGUCUAAGACCCCCAUUAUAAUAUUCAUGCGCUGCUUUUUCAUCAAAACCUACCCUGUCCCCGAGAUCUAUGGGCAUUUGGUGGAUGAUAAUGAGCAGCCCCUCCCAGACCGAAUGUCAAUCAACAGAGGAUUGAGCAUCA
B7: chr12:95514132:95514176:+|3pUTR|ENSG00000111142|msi1_unk|total|mutant (ssRNA)
RNA: GGGAGUUCUACAGUCCGACGAUCCUUUUAAAUGCUAACUGUUUUUCCCCUUCCUGUCCCGGAAAAUGCUAUAAAGCUCAAAUCCGUCCGGAAUGACUUAUACGUUUUGUUUUGAAUACCUAAGAGAUACUUUUUGGAUAUUUACAACAGAGGAUUGAGCAUCA
B8: chr20:62294722:62294823:+|3pUTR|ENSG00000130703|unk|total|mutant (ssRNA)
RNA: GGGAGUUCUACAGUCCGACGAUCCGCACACCGCGUCCGUGUCUCCAGGGGGUUCCUUUCUUCUCACACGUCGCGUGUACCCACCGCACUCUUGUGUUUCUGUUUUUCCCAGUAUGCAUGUUUAAAACCGAAGUGACAAGAAUCCAACAGAGGAUUGAGCAUCA
B9: chr11:102867907:102868069:-|CDS|ENSG00000262406|control|control|control (ssRNA)
RNA: GGGAGUUCUACAGUCCGACGAUCACAAACUUGUUCCUCACUGCUGUUCACGAGAUUGGCCAUUCCUUAGGUCUUGGCCAUUCUAGUGAUCCAAAGGCCGUAAUGUUCCCCACCUACAAAUAUGUUGACAUCAACACAUUUCGCCAACAGAGGAUUGAGCAUCA
B10: chr17:81557321:81557422:-|3pUTR|ENSG00000182446|msi1|FALSE|unique (ssRNA)
RNA: GGGAGUUCUACAGUCCGACGAUCAGCAUUUCCCUUACUCUGAAGUUCCGGCAUUCACAUCAUUCAUGUUUUCUUUUGUCUUUUAGCUAAAGGAAAAGCAUUGGCGAUUUGUCUGAUUCUGGUUUUGAGUUACUCUUUGUUCAGCAACAGAGGAUUGAGCAUCA
B11: chr11:35231809:35232301:+|3pUTR|ENSG00000026508|msi1|FALSE|unique (ssRNA)
RNA: GGGAGUUCUACAGUCCGACGAUCACAACACCAAGAAUUGAUUUUGUAGCCAACAUUCAUUCAAUACUGUUAUAUCAGAGGAGUAGGAGAGAGGAAACAUUUGACUUAUCUGGAAAAGCAAAAUGUACUUAAGAAUAAGAAUAACAACAGAGGAUUGAGCAUCA
B12: ENSG00000198589:be:win_6351|CDS|ENSG00000198589|bound_else_gene|NA|bound_elsewhere_windowed (ssRNA)
RNA: GGGAGUUCUACAGUCCGACGAUCGCUGCAUGGAAAAUGGCUGUUCACAGAGAUACGAUCAAUCUUUUCUCGUCGUUAUCUUUUGCAAAAUACAGCCCUGGAGAUCUUUAUGGCAAACAGAGUUGCUGUGAUGUUCAACUUCCCCAACAGAGGAUUGAGCAUCA
B13: chr11:35230299:35231094:+|3pUTR|ENSG00000026508|msi1|total|mutant (ssRNA)
RNA: GGGAGUUCUACAGUCCGACGAUCGCCUGGGGAGUCCCUCAAAAGGUUAAAGGGAUUCCCAUCAUUGGAAUCUUAUCACCAGACCGGCAAGUUUAUGACCAAACAAGAGAGUACUGGCUUUAUCCUCUAACCUCAUAUUUUCUCCAACAGAGGAUUGAGCAUCA
B14: chr1:229632307:229632408:+|CDS|ENSG00000135763|unk|total|mutant (ssRNA)
RNA: GGGAGUUCUACAGUCCGACGAUCAUUUUAUAAGAAAAAGCUUGAACUGAAGGAAGAUAUUGUUGAAAGGCUUUGGAUCUAUACCGAUAACAUUUUACACCGCAGAAAAUUGCAGAAUCUCCUCAAGAAUGGAAAGACCAUUAACAACAGAGGAUUGAGCAUCA
B15: ENSG00000198589:be:win_3801|CDS|ENSG00000198589|bound_else_gene|NA|bound_elsewhere_windowed (ssRNA)
RNA: GGGAGUUCUACAGUCCGACGAUCUCAACCUCAUCGACAUGUGCUUGAGAUAUCAAGGCAACAUGAGCAGCCAGGGCAAGGAAUAGCACCAGAUGCAGUUAAUGGACAAAGGAGGGAUUCCAGAUCUACUGUGUUUCGUAUUCCCAACAGAGGAUUGAGCAUCA
B16: chr20:23354638:23354749:+|3pUTR|ENSG00000132661|unk|total|mutant (ssRNA)
RNA: GGGAGUUCUACAGUCCGACGAUCAAGUUCCCGGAGUCCCUUUCCUGAAUAUAUACUUGUUUGUCACCGUUUCCUUUUCAAAGCCGUAAACUUUUCUAUUUUUCUACUUGCCCAGCCGAGACUCUGAUUCUGGAAAUUCUGACACAACAGAGGAUUGAGCAUCA
B17: ENSG00000198589:be:win_3551|CDS|ENSG00000198589|bound_else_gene|NA|bound_elsewhere_windowed (ssRNA)
RNA: GGGAGUUCUACAGUCCGACGAUCCAUCAGGGUCUUCAGCUAUGUCACCAGAAACUACUGUUUCCCAAAUAGCUGUAGAAUCAGACCUUGGUCAGAUGCUGGAGGAAGGGAAGAAAGCAACUAACCUCACUAGAGAAACCAAAUCAACAGAGGAUUGAGCAUCA
B18: chr17:59694590:59694691:+|3pUTR|ENSG00000141367|msi1|total|mutant (ssRNA)
RNA: GGGAGUUCUACAGUCCGACGAUCCUUGUGUGUGUUUACUAACCCUUCCCUGAGGUUUGUGUAUGUUGGAUAUUGUGGUGUUUCCGAUCACUGAGUGUACAGAAGAGAGAAAUUCAAACAAAAUAUUGCUGUUCUUCAGUUUUGCAACAGAGGAUUGAGCAUCA
B19: chr5:133076644:133076819:+|CDS|ENSG00000170606|unk|FALSE|unique (ssRNA)
RNA: GGGAGUUCUACAGUCCGACGAUCAAAAUUUGAUGAAGUGUUAGUAAAUCACUUCUGUGAAGAAUUUGGGAAGAAAUACAAGCUAGACAUUAAGUCCAAAAUCCGUGCAUUAUUACGACUCUCUCAGGAGUGUGAGAAACUCAACAACAGAGGAUUGAGCAUCA
B20: chr10:73479331:73479449:-|CDS|ENSG00000107758|unk|total|mutant (ssRNA)
RNA: GGGAGUUCUACAGUCCGACGAUCGUUGAUGUUCUGAAGAACCACUUGGUGAAAGAAGGUCGAGCCGAUGAAGAAAUUGCGCUCCGAAUUAUCAAUGAGGGUGCUGCCAUCCUUCGGAGAGAGAAAACCAUGACCGAAGCCGAACAACAGAGGAUUGAGCAUCA
B21: chr4:99204923:99205063:-|CDS|ENSG00000172955|control|control|control (ssRNA)
RNA: GGGAGUUCUACAGUCCGACGAUCGAAGAGCAGACAGCACAUCCCUAAACUGGUUGCUGAUUAUAUGGCAGAGAAGUUGAAUCUAGAUCCACUAAUUACUCAUACUCUGAAUCUUGAUAAAAUCAAUGAAGCAGUUGAAUUAAUCAACAGAGGAUUGAGCAUCA
B22: chr10:110602053:110602155:+|CDS|ENSG00000108055|unk|total|mutant (ssRNA)
RNA: GGGAGUUCUACAGUCCGACGAUCCAGUUUGUAAAUUUCUCCGAGCAGAAAGAAAAGUUAAUAAAGCGUCAAGAAGAGUCCGACCGGGGUUACAAAUCAAUCAUGGAACUGAUGAAUGUACUUGAACUUCGGAAAUAUGAAGCUCAACAGAGGAUUGAGCAUCA

Target: T1, UNK ZnF1-6 (called full-length)
Assay: nsRBNS (natural sequence RNA bind-n-seq); RBNS binding buffer (assumed for nsRBNS): 25 mM Tris pH 7.5, 150 mM KCl, 3 mM MgCl2, 0.01% Triton X-100, 500 ug/ml BSA, 20 U/ml SUPERase-In, 4 C; UNK is unkempt and MSI1 is Musashi-1; names of the RNAs are library labels; protein concentration not given here; high values mean tight binding

Binder | binding signal
B1 | 0.693 enrichment R
B2 | 1.37 enrichment R
B3 | 0.461 enrichment R
B4 | 1.19 enrichment R
B5 | 0.763 enrichment R
B6 | 1.68 enrichment R
B7 | 0.444 enrichment R
B8 | 0.496 enrichment R
B9 | 0.434 enrichment R
B10 | 0.411 enrichment R
B11 | 0.744 enrichment R
B12 | 0.334 enrichment R
B13 | 0.475 enrichment R
B14 | 0.486 enrichment R
B15 | 0.666 enrichment R
B16 | 0.594 enrichment R
B17 | 0.656 enrichment R
B18 | 0.43 enrichment R
B19 | 0.433 enrichment R
B20 | 0.662 enrichment R
B21 | 0.416 enrichment R
B22 | 0.275 enrichment R
